The other results are listed elsewhere or left out.
Assays:
Assay in all cases: glycan array binding signal (z-score within array); higher = stronger binding
Conditions in all cases: glycan notation: IUPAC condensed, linker removed
[1] = target: Gal(b1-4)GlcNAc(b1-3)Gal(b1-4)GlcNAc(b1-2)[Gal(b1-4)GlcNAc(b1-3)Gal(b1-4)GlcNAc(b1-6)]Man(a1-6)[Gal(b1-4)GlcNAc(b1-3)Gal(b1-4)GlcNAc(b1-2)Man(a1-3)]Man(b1-4)GlcNAc(b1-4)GlcNAc
Outline: (§1)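 Glycan array binding is given as a within-array Z-score, which can be read as non-binding when negative. The arrays, 3228 of them, came from the Consortium for Functional Glycomics database and were retained only where the protein sequence was available. Z-scores were averaged across arrays of the same protein sequence at different concentrations or buffers and across linkers.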

[2] = target: Gal(b1-4)GlcNAc(b1-3)Gal(b1-4)GlcNAc(b1-2)[Gal(b1-4)GlcNAc(b1-3)Gal(b1-4)GlcNAc(b1-6)]Man(a1-6)[Gal(b1-4)GlcNAc(b1-3)Gal(b1-4)GlcNAc(b1-2)Man(a1-3)]Man(b1-4)GlcNAc(b1-4)[Fuc(a1-6)]GlcNAc
Outline: as §1

[3] = target: Gal(b1-4)GlcNAc(b1-3)Gal(b1-4)GlcNAc(b1-3)Gal(b1-4)GlcNAc
Outline: as §1

[4] = target: Gal(b1-4)GlcNAc(b1-3)Gal(b1-4)GlcNAc(b1-3)Gal(b1-4)GlcNAc(b1-2)Man(a1-3)[Gal(b1-4)GlcNAc(b1-3)Gal(b1-4)GlcNAc(b1-3)Gal(b1-4)GlcNAc(b1-2)Man(a1-6)]Man(b1-4)GlcNAc(b1-4)GlcNAc
Outline: as §1

[5] = target: Gal(b1-4)GlcNAc(b1-3)Gal(b1-4)GlcNAc(b1-3)Gal(b1-4)GlcNAc(b1-2)Man(a1-3)[Gal(b1-4)GlcNAc(b1-3)Gal(b1-4)GlcNAc(b1-3)Gal(b1-4)GlcNAc(b1-2)Man(a1-6)]Man(b1-4)GlcNAc(b1-4)[Fuc(a1-6)]GlcNAc
Outline: as §1

[6] = target: Gal(b1-4)GlcNAc(b1-3)Gal(b1-4)GlcNAc(b1-3)Gal(b1-4)GlcNAc(b1-2)[Gal(b1-4)GlcNAc(b1-3)Gal(b1-4)GlcNAc(b1-3)Gal(b1-4)GlcNAc(b1-6)]Man(a1-6)[Gal(b1-4)GlcNAc(b1-3)Gal(b1-4)GlcNAc(b1-3)Gal(b1-4)GlcNAc(b1-2)Man(a1-3)]Man(b1-4)GlcNAc(b1-4)[Fuc(a1-6)]GlcNAc
Outline: as §1

[7] = target: Gal(b1-4)GlcNAc(b1-3)Gal(b1-4)GlcNAc(b1-3)Gal(b1-4)GlcNAc(b1-3)Gal(b1-4)GlcNAc(b1-2)Man(a1-3)[Gal(b1-4)GlcNAc(b1-3)Gal(b1-4)GlcNAc(b1-3)Gal(b1-4)GlcNAc(b1-3)Gal(b1-4)GlcNAc(b1-2)Man(a1-6)]Man(b1-4)GlcNAc(b1-4)GlcNAc
Outline: as §1

[8] = target: Gal(b1-4)GlcNAc(b1-3)Gal(b1-4)GlcNAc(b1-3)Gal(b1-4)GlcNAc(b1-3)Gal(b1-4)GlcNAc(b1-2)Man(a1-3)[Gal(b1-4)GlcNAc(b1-3)Gal(b1-4)GlcNAc(b1-3)Gal(b1-4)GlcNAc(b1-3)Gal(b1-4)GlcNAc(b1-2)Man(a1-6)]Man(b1-4)GlcNAc(b1-4)[Fuc(a1-6)]GlcNAc
Outline: as §1

[9] = target: Gal(b1-4)GlcNAc(b1-3)Gal(b1-4)GlcNAc(b1-3)Gal(b1-4)GlcNAc(b1-3)Gal(b1-4)GlcNAc(b1-2)[Gal(b1-4)GlcNAc(b1-3)Gal(b1-4)GlcNAc(b1-3)Gal(b1-4)GlcNAc(b1-3)Gal(b1-4)GlcNAc(b1-6)]Man(a1-6)[Gal(b1-4)GlcNAc(b1-3)Gal(b1-4)GlcNAc(b1-3)Gal(b1-4)GlcNAc(b1-3)Gal(b1-4)GlcNAc(b1-2)Man(a1-3)]Man(b1-4)GlcNAc(b1-4)[Fuc(a1-6)]GlcNAc
Outline: as §1

[10] = target: Gal(b1-4)GlcNAc(b1-3)Gal(b1-4)GlcNAc(b1-3)Gal(b1-4)GlcNAc(b1-3)Gal(b1-4)GlcNAc(b1-3)Gal(b1-4)GlcNAc(b1-2)Man(a1-3)[Gal(b1-4)GlcNAc(b1-3)Gal(b1-4)GlcNAc(b1-3)Gal(b1-4)GlcNAc(b1-3)Gal(b1-4)GlcNAc(b1-3)Gal(b1-4)GlcNAc(b1-2)Man(a1-6)]Man(b1-4)GlcNAc(b1-4)GlcNAc
Outline: as §1

[11] = target: Gal(b1-4)GlcNAc(b1-3)Gal(b1-4)GlcNAc(b1-3)Gal(b1-4)GlcNAc(b1-3)Gal(b1-4)GlcNAc(b1-3)Gal(b1-4)GlcNAc(b1-2)Man(a1-3)[Gal(b1-4)GlcNAc(b1-3)Gal(b1-4)GlcNAc(b1-3)Gal(b1-4)GlcNAc(b1-3)Gal(b1-4)GlcNAc(b1-3)Gal(b1-4)GlcNAc(b1-2)Man(a1-6)]Man(b1-4)GlcNAc(b1-4)[Fuc(a1-6)]GlcNAc
Outline: as §1

[12] = target: Gal(b1-4)GlcNAc(b1-3)Gal(b1-4)GlcNAc(b1-3)Gal(b1-4)GlcNAc(b1-3)Gal(b1-4)GlcNAc(b1-3)Gal(b1-4)GlcNAc(b1-2)[Gal(b1-4)GlcNAc(b1-3)Gal(b1-4)GlcNAc(b1-3)Gal(b1-4)GlcNAc(b1-3)Gal(b1-4)GlcNAc(b1-3)Gal(b1-4)GlcNAc(b1-6)]Man(a1-6)[Gal(b1-4)GlcNAc(b1-3)Gal(b1-4)GlcNAc(b1-3)Gal(b1-4)GlcNAc(b1-3)Gal(b1-4)GlcNAc(b1-3)Gal(b1-4)GlcNAc(b1-2)Man(a1-3)]Man(b1-4)GlcNAc(b1-4)[Fuc(a1-6)]GlcNAc
Outline: as §1

[13] = target: Gal(b1-4)GlcNAc(b1-3)Gal(b1-4)GlcNAc(b1-3)Gal(b1-4)GlcNAc(b1-3)Gal(b1-4)GlcNAc(b1-3)Gal(b1-4)GlcNAc(b1-3)Gal(b1-4)GlcNAc(b1-2)Man(a1-3)[Gal(b1-4)GlcNAc(b1-3)Gal(b1-4)GlcNAc(b1-3)Gal(b1-4)GlcNAc(b1-3)Gal(b1-4)GlcNAc(b1-3)Gal(b1-4)GlcNAc(b1-3)Gal(b1-4)GlcNAc(b1-2)Man(a1-6)]Man(b1-4)GlcNAc(b1-4)GlcNAc
Outline: as §1

[14] = target: Gal(b1-4)GlcNAc(b1-3)Gal(b1-4)GlcNAc(b1-3)GalNAc
Outline: as §1

[15] = target: Gal(b1-4)GlcNAc(b1-3)Gal(b1-4)GlcNAc(b1-3)[Gal(b1-4)GlcNAc(b1-3)Gal(b1-4)GlcNAc(b1-6)]GalNAc
Outline: as §1

[16] = target: Gal(b1-4)GlcNAc(b1-3)Gal(b1-4)GlcNAc(b1-6)[Gal(b1-3)]GalNAc
Outline: as §1

[17] = target: Gal(b1-4)GlcNAc(b1-3)Gal(b1-4)[Fuc(a1-3)]GlcNAc(b1-3)Gal(b1-4)[Fuc(a1-3)]GlcNAc
Outline: as §1

[18] = target: Gal(b1-4)GlcNAc(b1-3)GalNAc
Outline: as §1

[19] = target: Gal(b1-4)GlcNAc(b1-3)[Fuc(a1-3)GlcNAc(b1-6)]Gal(b1-4)Glc
Outline: as §1

[20] = target: Gal(b1-4)GlcNAc(b1-3)[Gal(b1-4)GlcNAc(b1-6)]Gal(b1-4)GlcNAc
Outline: as §1

[21] = target: Gal(b1-4)GlcNAc(b1-3)[GlcNAc(b1-6)]Gal(b1-4)GlcNAc
Outline: as §1

[22] = target: Gal(b1-4)GlcNAc(b1-6)Gal(b1-4)GlcNAc
Outline: as §1

B1: GS7807E-bfa-538-23-538 (Bacteroides fragilis) (protein)
chain: TDSFESFNTNEAGFDNDSKKQDFNYYGIPLGIIQQGIYFNYDWGSGKNWPFQTMQNLGADLFSGYVHDFNPFNEGKNNSTYYMMDGWNGSTWDNTYGYIMPEVQKSETINEKDNIGFFGITKILKVELMHRLSDLYGPIVYTQFGSKTGSTPDTQQEAYKAFFNDLDTGIAKIREYQKANPDIESFAKFDILMPQGKRTFSEWIRFANSLRLRLAVRIAMADSKLAVAEAQKALTDEEGLLEGNDEVVAVSTSSGYTNPFGEINKAWGEVFMNANMESLLVGYEDPRMEKYFDKATGSDATSLIDYKGTYKGIRQGTGFSHKNYNGHSKSTITQQTDAVLMTPAEVWFLRAEAALRGWSSESVKDCYEKGVKASFAQWGAAGAEAYLESDRKPSDYVDAFKAANNVKAVNTLTPKWDDAAGNEDKLGRIITQKWLAMFPEGGEAWAEQRRTGYPRLFPVLVNQSEGTVDTNLGPRRLNFFVGIKTTNPEQYTQLVNALGGIDNCGTRLWWDTGRNF
- glycan array binding signal (z-score) [1]: 1.76
- glycan array binding signal (z-score) [2]: 2.08
- glycan array binding signal (z-score) [3]: -0.255
- glycan array binding signal (z-score) [4]: 1.59
- glycan array binding signal (z-score) [5]: 2.1
- glycan array binding signal (z-score) [6]: 4.56
- glycan array binding signal (z-score) [7]: 1.91
- glycan array binding signal (z-score) [8]: 2.83
- glycan array binding signal (z-score) [9]: 0.716
- glycan array binding signal (z-score) [10]: 1.24
- glycan array binding signal (z-score) [11]: 0.752
- glycan array binding signal (z-score) [12]: 0.867
- glycan array binding signal (z-score) [13]: 0.83
- glycan array binding signal (z-score) [14]: -0.329
- glycan array binding signal (z-score) [15]: 0.715
- glycan array binding signal (z-score) [16]: 4.07
- glycan array binding signal (z-score) [17]: 0.531
- glycan array binding signal (z-score) [18]: -0.315
- glycan array binding signal (z-score) [19]: -0.477
- glycan array binding signal (z-score) [20]: -0.058
- glycan array binding signal (z-score) [21]: -0.572
- glycan array binding signal (z-score) [22]: -0.357

Source: the supplement of paper PMC8728848
